From PubChem BioAssay AID1963576 (National Center for Advancing Translational Sciences (NCATS), 2024)
Screen size: about 46,000 compounds; about 60 (0.1%) were called active. Not shown: some 3% with an inconclusive outcome. The call rests on the fitted dose curve; in most records, active means well fitted inhibition curve with a large enough effect; inconclusive means small, poorly fitted or top-dose-only effect; inactive means no such curve, though single readings can be large or run the other way. The list shows a part of the results.

Test: Primary qHTS assay for Inhibitors of ovarian cancer metastasis using an organotypic tumor microenvironment (TME) model. Further: nearly all actives have a fitted effect of over 65% in size.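 On activity change, negative = inhibition: plate controls were DMSO wells for no effect and tomatine positive control wells for full effect.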
Settings: SKOV3ip1-GFP adhesion/invasion on 3D omental model, fluorescence; series mostly up to 45.8 µM; activity change, negative = inhibition: at the top concentration
In short: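 Adhesion/invasion was scored as fixed GFP-labeled SKOV3ip1 cell counts (488/509 nm), normalized to DMSO and tomatine controls. Cancer cells in serum-free medium, with four compound doses (0.36-46 umol/L), sat 2 hr at RT then 16 hr at 37 C on a 48 hr fibroblast/mesothelial/ECM culture.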

Activity change, negative = inhibition, inactive:
CC1CCN(C(=O)CN2c3ccc(Br)cc3-c3ccccc3S2(=O)=O)CC1 -25.3%
COc1ccc(-c2nnc(SCC(=O)N3CCCCC3)o2)cc1 0.449%
CCOc1ccc2c(c1)c(=O)c(S(=O)(=O)c1ccc(CC)cc1)cn2CC 1.11%
CCc1ccc(OCC(=O)Nc2cc3oc4ccccc4c3cc2OC)c(Br)c1 -1.63%
Cc1c(C(=O)N2CCCCCC2)c(S(=O)(=O)Nc2ccc(OC(F)(F)F)cc2)c(C)n1C 0.266%
CCOc1ccc(CCNC(=O)CCCc2nnc3n(CCCOC)c(=O)c4sccc4n23)cc1 3.23%
O=C1CC(c2ccccc2)Cc2[nH]c(=O)c(C(=O)Nc3ccc(F)cc3)cc21 (stereo not drawn) -26.3%
CCOC(=O)c1ccc(NC(=O)CSc2cc(-c3ccccc3)nc(C)n2)cc1 -5.11%
Cc1c(-c2ccc(Cl)cc2)c(=O)oc2c(CN3CCN(C)CC3)c(O)ccc12 15.7%
Cc1ccc(C)c(N(C)C(=O)CCNC(=O)Cn2cnc3ccccc3c2=O)c1 0.627%
O=C(Nc1cccc(Cl)c1)C(Cc1ccccc1)n1cccc1 (stereo not drawn) -5.15%
CCC1Oc2ccc(C)cc2N(CC(=O)NCc2ccc(F)cc2)C1=O (stereo not drawn) 0.295%
O=S(=O)(c1cccc2cnccc12)N1CCCNCC1 13.8%
CCOc1ccc(C2c3c(-c4ccccc4O)n[nH]c3C(=O)N2Cc2cccnc2)cc1OC (stereo not drawn) -5.55%
COc1cccc2sc(N(Cc3cccnc3)C(=O)C3CCCCC3)nc12 -7.76%
CCOC(=O)C1CCCN(C(=O)c2cc3c(Cl)nc4ccccc4c3s2)C1 (stereo not drawn) 3.81%
CCOC(=O)c1ccc2c(c1)sc1nc(-c3ccc(OCC)cc3)cn12 -11.1%
CCN(CC)CCCNC(=O)c1c2c(nc3ccccc13)C(=O)N(C1CCCCC1)C2 -6.98%
CCOC(=O)c1c(NC(=O)c2cc(=O)c3cc(Cl)ccc3o2)sc(C)c1C 9.42%
COc1ccc(NC(=O)CCc2nc3cccnc3n2-c2ccccc2)c(OC)c1 0.974%
Cc1cccc2sc(N(Cc3cccnc3)C(=O)CCS(=O)(=O)c3ccccc3)nc12 -19.8%
COc1ccc(N2C(=O)C(CC(=O)Nc3ccc(Cl)cc3)N(Cc3ccc4c(c3)OCO4)C2=O)cc1 (stereo not drawn) 2.93%
CCN1CCN(C(c2ccc(C)cc2)c2sc3nc(-c4ccco4)nn3c2O)CC1 (stereo not drawn) 8.72%
CCOc1ccc(CCNC(=O)CSc2nnnn2-c2ccccc2Cl)cc1OCC -22.1%
COc1cc(C(=O)Nc2ccccc2OCc2cc(=O)n3c(C)csc3n2)cc(OC)c1OC -2.46%
Cc1ccc(C)c(N2CCN(C(=O)CN3CCSc4ccccc43)CC2)c1 -3.78%
Cc1cccc(-c2nc(SCc3cc(=O)c4cccc(F)c4[nH]3)n[nH]2)c1 -2.51%
CC1N=C2c3ccccc3N=C(SCC(=O)NCc3ccc(Cl)cc3)N2C1=O (stereo not drawn) 0.0584%
COCCCNC(=O)c1sc2nc(C)c(C(=O)Nc3ccc(Cl)cc3)c(-c3ccc(Br)cc3)c2c1N 1.6%
CCN(CC)c1nn2c(=O)c(C(=O)NCc3cccc(OC)c3OC)cnc2s1 7.67%
COc1ccc(CNC(=O)c2cnn(-c3ccc(OC)cc3)c2C2CCN(C(=O)OC(C)(C)C)CC2)cc1 5.43%
CCS(=O)(=O)N1CC(=O)N(c2cccc(C)c2C)C(C)(C(=O)NC2CCCCCC2)C1 (stereo not drawn) 7.91%
O=C1c2oc3ccccc3c(=O)c2C(c2ccccc2F)N1Cc1ccc2c(c1)OCO2 (stereo not drawn) 8.63%
O=C(Nc1cccc2cccnc12)c1cccc2c(Br)cccc12 -0.353%
CCc1cc2c(cc3c(=O)n(CC(=O)NC4CCC(C)CC4)nc(CC)n32)s1 (stereo not drawn) -5.44%
Cc1ccccc1OCC(=O)NCC(c1ccc(Cl)cc1)N1CCOCC1 (stereo not drawn) 1.84%
CCC(=O)Nc1cc(-c2nc3cc(C)cc(C)c3o2)ccc1C -32.2%
Cc1cccc2c1-c1sc(C(=O)Nc3ccccc3C(N)=O)cc1CO2 -6.99%
O=C1c2[nH]nc(-c3ccccc3O)c2C(c2cccc(Br)c2)N1Cc1ccncc1 (stereo not drawn) 3.49%
CN(C(=O)CSc1cn(CC(=O)N2CCCC2)c2ccccc12)c1ccccc1 -0.53%
COc1ccc(NC(=O)Cn2ccn(Cc3ccccc3)c(=O)c2=O)cc1Cl 13%
CCOC(=O)c1ccc(NC(=O)c2cccc3c(=O)c4c([nH]c23)CCCC4)cc1 4.71%
CCc1ccccc1NC(=O)Cn1c(C(=O)OC)cc2oc(C)cc21 4%
COc1ccc(-n2c(Cc3ccccc3)nnc2SCc2nc(-c3ccccc3C)no2)cc1 4.61%
CCN(CC)CCNC(=O)c1sc2nc(C)cc(C)c2c1-n1cccc1 -5.77%
Cc1ccc2onc(CNC(=O)N(C)Cc3ccccc3)c2c1 5.42%
Clc1ccccc1CNc1nc2ccccc2c2nc(-c3ccccc3)nn12 1.16%
O=C(C1CCCCC1)N(Cc1cccnc1)c1nc2c(F)cccc2s1 -6.95%
CC(C)Oc1ccc(CNC(=O)c2ccc3c(c2)N(Cc2ccc(F)cc2)CCS3)cc1 -18%
Cc1ccc(N(C)S(=O)(=O)c2ccc(-c3cnc(C4CC4)o3)cc2)cc1 -29.5%
COc1ccc(Nc2nc(-c3ccccc3)c3cc(Br)ccc3n2)cc1 1.22%
O=C(Cn1ncc2c3ccccc3n(Cc3ccc(F)cc3)c2c1=O)NC1CCCCCC1 1.84%
Cc1ccc(C)c(NC(=O)N2CCN(c3nnc(C)c4c(C)n(-c5ccccc5)nc34)CC2)c1 -5.41%
COc1cc2c(cc1OC)C(COc1ccccc1OC)N(C(=O)c1ccc(S(=O)(=O)N3CCCC3)cc1)CC2 (stereo not drawn) -24.7%
COc1ccc(C)cc1NC(=O)CN1CCCN(S(=O)(=O)c2ccc(Br)cc2)CC1 10.5%
Cn1cc(C(=O)N2CCN(c3cccc(Cl)c3)CC2)c(=O)c2cc(S(=O)(=O)N3CCCC3)ccc21 -9.99%
CCOc1ccccc1NC(=O)c1c(NC(=O)Cc2ccccc2)sc2c1CCCC2 1.09%
Cc1cc(C)c(S(=O)(=O)Nc2ccc(-c3ccc(N4CCCCC4)nn3)cc2)c(C)c1 12.6%
COc1ccc(N2CCN(C(=O)c3cn(C4CCCCC4)c(=O)c4c3c3ccccc3n4C)CC2)cc1 3.8%
COC(=O)c1cccc(Nc2c(-c3ccc(O)cc3)nc3nc[nH]n23)c1 -15.2%
O=C(CCNS(=O)(=O)c1cccc2nonc12)Nc1ccc(F)cc1 10.7%
COC(=O)c1cc(OC)c(OC)c(OC)c1NC(=O)c1cc(=O)n(C)c(=O)n1C -31.2%
CCOc1ccc(NC(=O)CSc2ccc3ccccc3n2)cc1 -14.2%
CCOC(=O)c1ccc(NC(=O)c2c(NCc3cccc(OC)c3)sc3c2CCC3)cc1 -0.77%
Cc1ccccc1Nc1cc(C(=O)NC2CCC(C)CC2)c2ccccc2n1 (stereo not drawn) 3.23%
O=C(Nc1ccc(F)cc1F)c1cc2ccc3cccnc3c2[nH]1 -27.2%
Cc1cccc(C)c1NC(=O)N1CCC(C(N)=O)(N2CCCCC2)CC1 1.85%
COc1cccc(C(=O)NCC(c2ccc(N(C)C)cc2)N2CCc3ccccc32)c1OC (stereo not drawn) -9.92%
COc1ccc(-c2nc(Cn3c(SCc4cccc(F)c4)nc4cccnc43)c(C)o2)cc1 -2.05%
CC(C)c1ccc(C(=O)Nc2ccc(-c3nc4ccccc4s3)c(Cl)c2)cc1 0.707%
CCc1nc2ccccc2n1CCCCOc1ccc(Cl)cc1 -1.76%
COc1cc(NC(=O)Cn2nc(Cc3cccnc3)c3ccccc3c2=O)cc(OC)c1OC -2.19%
CCCCN(CCCC)S(=O)(=O)c1ccc(C(=O)Nc2sc3c(c2C(N)=O)CCN(CC)C3)cc1 8.24%
CC(NCCc1ccc(O)cc1)C(O)c1ccc(O)cc1 (stereo not drawn) 7.44%
COc1ccc(N2CCN(c3oc(-c4ccccc4C)nc3S(=O)(=O)c3ccccc3)CC2)cc1 -7.34%
Cc1cccc(OCC(=O)Nc2c(C(=O)N3CCN(c4ccccc4)CC3)oc3ccccc23)c1 5.11%
COc1ccccc1NC(=O)Cn1c(=O)n(CCc2ccccc2)c(=O)c2sc3ccccc3c21 -1.54%

outcome, inactive:
O=C(CNC(=O)c1ccccc1Cl)OCc1cc(=O)n2nc(C3CC3)sc2n1
CC(C)CC(=O)Nc1nnc(S(=O)(=O)N(C)c2ccc(Cl)cc2)s1
CC(C)c1nn2c(=O)cc(COC(=O)c3cccc(NC(=O)c4ccccc4F)c3)nc2s1
CC1CCc2c(sc3nc(-c4cc5ccccc5oc4=O)nc(Cl)c23)C1 (stereo not drawn)
O=C(NCCS(=O)(=O)N1CCN(c2ccccc2F)CC1)c1ccccc1C(F)(F)F
COc1cccc(CNC(=O)Cn2c(=O)cc(C(F)(F)F)c3c(C)nn(C)c32)c1OC
Fc1ccc(F)c(Nc2c3c(nc4ccc(Cl)cc24)CCC3)c1
COCCn1c(=N)c(C(=O)NCC2CCCO2)cc2c(=O)n3ccccc3nc21 (stereo not drawn)
COc1cccc(NC(=O)CSc2cc(C)[nH]c(=O)n2)c1
Cc1c2cnn(-c3ccccc3)c(=O)c2c(C)n1CC(=O)N1CCN(c2cccc(Cl)c2)CC1
Cc1nc(SCC(=O)Nc2ccccc2Cl)cc(-c2ccccc2)n1
COc1cccc(-c2n[nH]c3c2C(c2cccc(O)c2)N(C)C3=O)c1 (stereo not drawn)
Cc1c(C(=O)N(C)c2ccccc2)sc2nc(-c3ccc(F)cc3)cn12
Cc1cc(C)cc(NC(c2cccc(Cl)c2)c2nnc(-c3ccccc3)o2)c1 (stereo not drawn)
CCCCOc1ccc(S(=O)(=O)Nc2ccc(-c3ccc(N4CCCCC4)nn3)cc2)cc1
O=C(Nc1ccc(Br)cc1F)c1ccc2nc(CCc3ccccc3)oc2c1
CCOC(=O)c1cc(-c2ccccc2)n(-c2cccc(C(=O)NC(C)CC)c2)c1C (stereo not drawn)
COCCCNC(=O)CN1C(=O)COc2ccc(S(=O)(=O)N3CCOCC3)cc21
COc1ccc2oc(-c3ccc(C)c(NC(=O)c4sc5ccccc5c4Cl)c3)nc2c1
Cn1cc(S(=O)(=O)N2CCCCCC2)cc1C(=O)Nc1ccccc1F
COc1cccc(-n2c(-c3ccco3)nc3c(cnn3-c3ccccc3C)c2=O)c1
